Data taken from the supplement of paper PMC4967469.

How the values were obtained:
Test in all cases: Viability of human cancer cell lines after 72 h of drug (GDSC screen)
[1] = compound: NCC(=O)Nc1ccc(-n2nc(C(F)(F)F)cc2-c2ccc3c(ccc4ccccc43)c2)cc1 [OSU-03012]; conditions: top dose 16 µM; top dose inferred
Description: (§1)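 Human cancer cell lines in 384-well plates, medium with 10% serum, drug for 72 h over a 256-fold dose range (nine 2-fold or five 4-fold steps up to the top dose). Adherent lines were fixed and stained with the nucleic acid dye Syto60, suspension lines read with resazurin; signal relative to control wells, capped at 0 and 100%. One two-parameter sigmoid per drug and line, fitted in a mixed model over all curves with the slope shared within a line.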

[2] = compound: O=c1[nH]cc(F)c(=O)[nH]1 [5-Fluorouracil]; conditions: top dose 32 µM; top dose inferred
Description: as §1

[3] = compound: OC[C@H](Cc1ccccc1)Nc1nc(Oc2ccc3c(c2)CCC3)nc2c1ncn2Cc1ccc(-c2ccccc2)cc1 [QS11]; conditions: top dose 10.24 µM
Description: as §1

[4] = compound: COc1cc(F)c(F)c(Nc2ccc(I)cc2F)c1NS(=O)(=O)C1(C[C@H](O)CO)CC1 [RDEA119]; conditions: top dose 5 µM, top dose inferred
Description: as §1

[5] = compound: C#Cc1cccc(Nc2ncnc3cc(OC)c(OCCCCCCC(=O)NO)cc23)c1 [CUDC-101]; conditions: top dose 5.12 µM; top dose inferred
Description: as §1

[6] = compound: CC(C)(C)c1cc(NC(=O)Nc2ccc(-c3cn4c(n3)sc3cc(OCCN5CCOCC5)ccc34)cc2)no1 [AC220]; conditions: top dose 1.024 µM; top dose inferred
Description: as §1

[7] = compound: Fc1cc(-c2ccnc(Nc3ccc(-n4cnc(N5CCOCC5)n4)cc3)n2)cc(N2CCOCC2)c1 [JNK-9L]; conditions: top dose 5.12 µM; top dose inferred
Description: as §1

| Cell Line | AUC [1] | pIC50 [1] | AUC [2] | pIC50 [2] | AUC [3] | pIC50 [3] | AUC ([4]; screen: GDSC drug entry 1014) | pIC50 ([4]; screen: GDSC drug entry 1014) | AUC ([4]; screen: GDSC drug entry 1526) | pIC50 ([4]; screen: GDSC drug entry 1526) | AUC [5] | pIC50 [5] | AUC [6] | pIC50 [6] | AUC [7] | pIC50 [7] |
| --- | --- | --- | --- | --- | --- | --- | --- | --- | --- | --- | --- | --- | --- | --- | --- | --- |
| 8-MG-BA (glioma, adherent) | 0.558 | 5.85 | 0.859 | 4.62 | 0.787 | 5.38 | 0.944 | < 5.30 | 0.9 | < 5.30 | 0.565 | 6.32 | 0.985 | < 5.99 | 0.315 | 7.00 |
| 22RV1 (prostate, adherent) | 0.737 | 5.24 | 0.487 | 5.74 | 0.858 | < 4.99 | 0.89 | < 5.30 | 0.908 | < 5.30 | 0.326 | 7.04 | 0.981 | < 5.99 | 0.683 | 5.92 |
| 42-MG-BA (glioma, adherent) | 0.845 | 4.90 | 0.724 | 5.04 | 0.985 | < 4.99 | 0.909 | < 5.30 | 0.922 | < 5.30 | 0.62 | 6.15 | 0.971 | < 5.99 | 0.725 | 5.84 |
| 451Lu (melanoma, adherent) | 0.714 | 5.41 | 0.959 | < 4.49 | 0.88 | 5.00 | 0.243 | 7.23 | 0.446 | 6.65 | 0.655 | 6.07 | 0.989 | < 5.99 | 0.457 | 6.61 |
| 639-V (bladder, adherent) | 0.271 | 6.60 | 0.954 | < 4.49 | 0.623 | 5.88 | 0.864 | 5.48 | 0.934 | < 5.30 | 0.747 | 5.84 | 0.992 | < 5.99 | 0.444 | 6.64 |
| 647-V (bladder, adherent) | 0.708 | 5.41 | 0.851 | 4.61 | 0.925 | < 4.99 | 0.847 | 5.43 | 0.885 | < 5.30 | 0.785 | 5.66 | 0.987 | < 5.99 | 0.521 | 6.44 |
| 697 (lymphoblastic leukaemia, suspension) | 0.59 | 5.77 | 0.504 | 5.69 | 0.783 | 5.46 | 0.932 | < 5.30 | – | – | 0.294 | 7.02 | 0.951 | < 5.99 | 0.544 | 6.39 |
| 769-P (kidney, adherent) | 0.631 | 5.62 | 0.607 | 5.39 | 0.767 | 5.38 | – | – | 0.835 | 5.43 | 0.657 | 6.04 | 0.983 | < 5.99 | 0.546 | 6.36 |

pIC50: −log10 of the molar value. Lines with a small IC50 respond at low doses; fits outside the tested doses are given as limits. AUC sums up the same curve from the lowest dose to the 256-fold higher top dose; values near 1 show little effect. For some of these results: Where the top dose is marked as inferred, it is not printed in the source and was worked back from the curve model. For some of these results: An entry number marks a drug with two screens in the source, which often give different values.
